Compound in assay [1]: T1, OC(c1cc(C(F)(F)F)nc2c(C(F)(F)F)cccc12)C1CCCCN1 [mefloquine]
How it is done: (§1)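 Hypoxanthine uptake by fresh isolates, duplicate serial dilutions, 24 h of drug plus 18 h after the label; sigmoid fit per isolate.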

Compound in assay [2]: T1, mefloquine
Nature of the assay: slope of the dose-response curve (dimensionless); higher = steeper concentration-effect curve. As for the experimental part:
as §1

Compound in assay [3]: T2, C[C@H]1[C@H](OC(=O)CCC(=O)O)O[C@@H]2O[C@@]3(C)CC[C@H]4[C@H](C)CC[C@@H]1[C@@]24OO3 [artesunate]
How it is done: as §1

Compound in assay [4]: T2, artesunate
Nature of the assay: slope of the dose-response curve (dimensionless); higher = steeper concentration-effect curve. As for the experimental part:
as §1

Growth of fresh clinical P. falciparum isolates by hypoxanthine uptake over 42 h; for most isolates 1.6-1,647 nM mefloquine, 0.044-87 nM artesunate, 10-10,256 nM chloroquine, 2.4-236 nM lumefantrine. EC50, lower = more sensitive; slope from the same fit, higher = steeper. No active / inactive call. Fits with a coefficient of variation above 100% are not listed here; 15-28% of fits exceed 15%. Isolates are numbered anew.

In the case of “Plasmodium falciparum isolate 145 (pfmdr1 allele: 86N, 1042N, pfmdr1 copies: 4)”, the “EC50 of parasite growth” value in assay [1] worked out at 116 ng/mL. Further, the slope in assay [2] amounted to 9.84.
As for “Plasmodium falciparum isolate 66 (pfmdr1 allele: 86Y, pfmdr1 copies: 1)”, the “EC50 of parasite growth” value in assay [3] was 1.58 ng/mL; in assay [1], 4.59 ng/mL. In addition, the slope was determined as 3.83 in assay [4] and 2.68 in assay [2].
For “Plasmodium falciparum isolate 191 (pfmdr1 allele: 86N, 1042N, pfmdr1 copies: 3)”, the figures for the “EC50 of parasite growth” value in assay [3] and in assay [1] were 2.3 ng/mL and 120 ng/mL, respectively. Besides, the figures for the slope in assay [4] and in assay [2] were 6.28 and 2.61, respectively.
Take “Plasmodium falciparum isolate 481 (pfmdr1 allele: 86N, 1042N, pfmdr1 copies: 1)”: the “EC50 of parasite growth” value amounted to 0.172 ng/mL in assay [3] and 14 ng/mL in assay [1]. In addition, the slope in assay [4] came to 3.93; in assay [2] it was 1.83.
For “Plasmodium falciparum isolate 6 (pfmdr1 allele: 86N, 1042N, pfmdr1 copies: 1)”, in that order: 0.356 ng/mL, 7.16 ng/mL, 3.47 and 2.19.
Consider “Plasmodium falciparum isolate 31 (pfmdr1 allele: 86N, 1042N, pfmdr1 copies: 2)”, for which the “EC50 of parasite growth” value in assay [3] worked out at 6.5 ng/mL. Further, the slope in assay [4] was found to be 10.
As to “Plasmodium falciparum isolate 196 (pfmdr1 allele: 86N, 1042N, pfmdr1 copies: 2)”, the “EC50 of parasite growth” value in assay [1] amounted to 51.8 ng/mL. Moreover, the slope in assay [2] turned out to be 3.48.
For “Plasmodium falciparum isolate 443 (pfmdr1 allele: 86N, 1042N, pfmdr1 copies: 1)” the same measures were 6.12 ng/mL and 2.19.
On to “Plasmodium falciparum isolate 172 (pfmdr1 allele: 86N, 1042N, pfmdr1 copies: 3)”, for which the “EC50 of parasite growth” value in assay [3] worked out at 4.06 ng/mL. For the same test system, in assay [4], the slope stood at 1.84.
As to “Plasmodium falciparum isolate 116 (pfmdr1 allele: 86N, 1042N, pfmdr1 copies: 1)”, the “EC50 of parasite growth” value in assay [3] was 0.655 ng/mL. In addition, the slope in assay [4] amounted to 5.02.
As for “Plasmodium falciparum isolate 401 (pfmdr1 allele: 86N, 1042N, pfmdr1 copies: 3)”, the “EC50 of parasite growth” value in assay [1] amounted to 66.4 ng/mL. In assay [2], the slope came to 6.64.
For “Plasmodium falciparum isolate 60 (pfmdr1 allele: 86N, 1042N, pfmdr1 copies: 1)” the same measures were 62.9 ng/mL and 9.66.
With “Plasmodium falciparum isolate 152 (pfmdr1 allele: 86N, 1042N, pfmdr1 copies: 2)”, in assay [1], the “EC50 of parasite growth” value is 40.8 ng/mL. For the same test system, the slope in assay [2] amounted to 3.17.
For “Plasmodium falciparum isolate 142 (pfmdr1 allele: 86N, 1042N, pfmdr1 copies: 3)” the same measures were 87.4 ng/mL and 5.89.
For “Plasmodium falciparum isolate 9 (pfmdr1 allele: 86N, 1042N, pfmdr1 copies: 3)” the same measures were 182 ng/mL and 10.
Consider “Plasmodium falciparum isolate 127 (pfmdr1 allele: 86N, 1042N, pfmdr1 copies: 1)”, for which the “EC50 of parasite growth” value in assay [3] is 4.73 ng/mL. The slope in assay [4] is 3.83.
As to “Plasmodium falciparum isolate 448 (pfmdr1 allele: 86N, 1042N, pfmdr1 copies: 3)”, the “EC50 of parasite growth” value in assay [1] amounted to 29.8 ng/mL. In addition, in assay [2], the slope is 2.73.
Consider “Plasmodium falciparum isolate 173 (pfmdr1 allele: 1042D, pfmdr1 copies: 1)”, for which the “EC50 of parasite growth” value in assay [3] is 9.89 ng/mL. In assay [4], the slope came to 6.38.
As to “Plasmodium falciparum isolate 475 (pfmdr1 allele: 86N, 1042N, pfmdr1 copies: 3)”, the “EC50 of parasite growth” value in assay [3] amounted to 0.175 ng/mL. The slope in assay [4] amounted to 0.947.
For “Plasmodium falciparum isolate 249 (pfmdr1 allele: 86N, 1042N, pfmdr1 copies: 1)” the same measures were 1.66 ng/mL and 9.98.
For “Plasmodium falciparum isolate 256 (pfmdr1 allele: 86N, 1042N, pfmdr1 copies: 2)”, the “EC50 of parasite growth” value in assay [3] is 5.65 ng/mL. The slope in assay [4] was 5.86.

(Values after the supplement of paper PMC3722116.)
